Experimental data published in PubChem BioAssay (NCATS).
Several values for one entry are separate records, joined by “and”; a condition that tells them apart may be missing. Equal entries are not always repeated. This list was built around the results that the source calls inconclusive (neither active nor inactive); the mix of calls is not that of the screen. Potencies of inconclusive entries are doubtful fits and often do not repeat. Activity calls are given as the source filed them. The call rests on the fitted dose curve; in most records, active means well fitted cell-killing curve with a large enough effect; inconclusive means small, poorly fitted or top-dose-only effect, or effect the other way; inactive means no such curve, though single readings can be large or run the other way.

Key:
[1] = Viability qHTS for spleen associated tyrosine kinase inhibitor (SYKi) naive MV4-11 cells (AID 1963823); conditions: MV4-11 AML viability, CellTiter-Glo luminescence, 72 h; viability (% of control): at 45 µM (top of the series); further: nearly all actives have a fitted effect of over 40% in size
Procedure, shortened: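 Luminescence from CellTiter-Glo, developed 10 min at room temperature, gave viability of MV4-11 cells never exposed to SYK inhibitor. Cells (500/well) had been incubated with compounds for 72 hr under standard culture conditions.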

[2] = Viability qHTS for spleen associated tyrosine kinase inhibitor (SYKi) drug resistant MV4-11 cells (AID 1963824); further: nearly all actives have a fitted effect of over 35% in size
Procedure, shortened: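 SYK inhibitor-resistant MV4-11 AML cells, 500 per well, added to predispensed compounds and incubated 72 hr at 37 C, 5% CO2. Viability measured by CellTiter-Glo luminescence after 10 min at room temperature.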
Potency means the concentration at half of the fitted maximal effect; tags describe the fitted curve by direction and shape.

## O=C([C@@H](Cc1cccc(C(F)(F)F)c1)NS(=O)(=O)c1cc(F)c2c(c1)CCNC2)N1CCCC1
[1]
  Potency: inconclusive: 18.6 µM [cytotoxic, partial curve, poor fit]
[2]
  Potency: inconclusive: 18.6 µM [cytotoxic, partial curve]

## CC(=O)Nc1cccc(Nc2ncnc(N3CCC(OCc4ccc(OC(F)(F)F)cc4)CC3)n2)c1C
[1]
  Potency: inconclusive: 1.64 µM [cytotoxic, full curve]
[2]
  Potency: inconclusive: 2.59 µM [cytotoxic, full curve]

## COc1cc(F)c(F)c(Nc2ccc(I)cc2F)c1NS(=O)(=O)C1(CC(O)CO)CC1 (centres undefined)
[1]
  Potency: inconclusive: 0.58 µM [cytotoxic, full curve]
[2]
  Potency: active: 0.58 µM

## Nc1nc(CC(=O)Nc2ccc(CCNCC(O)c3ccccc3)cc2)cs1 (centres undefined)
[1]
  Potency: inconclusive: 7.31 µM [cytotoxic, partial curve]
[2]
  Potency: inconclusive: 23.1 µM [cytotoxic, single point]

## COc1nc2sc(C(=O)NC3CC3)c(N)c2c(C)c1Cl
[1]
  Potency: inconclusive: 20.6 µM [cytotoxic, partial curve]
[2]
  Potency: inconclusive: 18.4 µM [cytotoxic, partial curve]

## C[C@@H](Nc1cc(NS(=O)(=O)N2CCC2)nc(SCc2cccc(F)c2F)n1)[C@@H](O)CO
[1]
  Potency: inactive
[2]
  Potency: inconclusive: 29.1 µM [cytotoxic, partial curve, poor fit]

## O=S(=O)(c1ccccc1)N(CC(F)(F)F)c1ccc(C(O)(C(F)(F)F)C(F)(F)F)cc1
[1]
  Potency: inconclusive: 14.6 µM [cytotoxic, partial curve]
[2]
  Potency: active: 8.2 µM

## O=c1[nH]c(=O)n([C@H]2O[C@H](CO)[C@@H](O)[C@@H]2O)cc1/C=C\Br
[1]
  Potency: inconclusive: 1.5 µM [cytotoxic, partial curve, poor fit]
[2]
  Potency: inconclusive: 16.8 µM [cytotoxic, partial curve, poor fit]

## C=C1C(=O)OC2CC3(C)C(CC12)C(C)=CC(O)C3OC(C)=O (centres undefined)
[1]
  Potency: inconclusive: 0.404 µM [cytotoxic, full curve, poor fit]
[2]
  Potency: inconclusive: 11.4 µM [cytotoxic, single point]

## CC(=O)NC(C(=O)OC1CCC(C)(C)C2CC=C3C(=O)OCC3(O)C12C)C(C)C (centres undefined)
[1]
  Potency: inconclusive: 8.93 µM [cytotoxic, single point]
[2]
  Potency: inconclusive: 7.96 µM [cytotoxic, partial curve]

## CC(C)C[C@H](CC(=O)NO)C(=O)N[C@H](C(=O)N[C@@H](C)C(=O)NCCN)C(C)(C)C
[1]
  Potency: inconclusive: 5.31 µM [cytotoxic, single point]
[2]
  viability, % of control: inactive: 90.6% [at 9.25 µM]

## CN(C)C(=O)c1cc2cnc(Nc3ccc(N4CCNCC4)cn3)nc2n1C1CCCC1
[1]
  Potency: active: 2.31 µM and inconclusive: 590 nM [cytotoxic, full curve]
[2]
  Potency: active: 5.17 µM and inconclusive: 2.63 µM [cytotoxic, full curve]

## N#C/C(=C1\SCC(c2ccccc2Cl)S1)n1ccnc1 (centres undefined)
[1]
  Potency: inconclusive: 33.5 µM [cytotoxic, single point]
[2]
  Potency: inconclusive: 29.9 µM [cytotoxic, single point]

## Nc1cccc2c1CN([C@H]1CCC(=O)NC1=O)C2=O
[1]
  Potency: inconclusive: 0.263 µM [cytotoxic, full curve, poor fit]
[2]
  Potency: inactive

## CN(C)C(=O)Nc1cccc(-c2ccc(N(C)C)cc2)c1
[1]
  Potency: inconclusive: 13 µM [cytotoxic, partial curve, poor fit]
[2]
  Potency: inconclusive: 16.4 µM [cytotoxic, single point]

## Cn1ncc(Cl)c1-c1cc(C(=O)NC(CN)Cc2ccc(F)c(F)c2)oc1Cl (centres undefined)
[1]
  Potency: inconclusive: 6.51 µM [cytotoxic, partial curve] and inconclusive: 4.17 µM [cytotoxic, full curve]
[2]
  Potency: inconclusive: 7.31 µM [cytotoxic, partial curve] and active: 4.68 µM

## CN1CCN(c2ccc(Nc3cc(-c4cccc(-n5ccc6cc(C7CC7)cc(F)c6c5=O)c4CO)cn(C)c3=O)nc2)CC1
[1]
  Potency: inconclusive: 2.91 µM [cytotoxic, partial curve, poor fit]
[2]
  Potency: inconclusive: 4.61 µM [cytotoxic, single point]
